The supplement of paper PMC10369915
The other results are listed elsewhere or left out. No stated cut-off is given here; in the data, active = 3.2 or more and inactive = the rest. Most of these values are background signal.

These binders were tested against SHP2 C-SH2 domain E139D (assay: enrichment score (SH2-bound / input frequency) (ratio); bacterial display of known human phosphotyrosine sites (pTyr-Var adds point mutants) read by sequencing; higher = stronger binding; tyrosines were phosphorylated by kinases first). Details: peptide library: pTyr-Var.
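Further: displayed peptides selected on beads carrying the immobilized SH2 domain, with library peptides lacking any tyrosine serving as negative controls.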

Enrichment score, inactive:
FTRNYYVWAVL [CYBA_Y88_R90W] 2.26
FTRNFYVWAVL [CYBA_Y88_R90W_YF] 0.495
MEVGQYIFVKC [CYBB_Y324] 1.3
MEVGQYFFVKC [CYBB_Y324_I325F] 0.659
GQAPGYSYTAA [CYCS_Y47] 0.697
SQAPGYSFTAA [CYCS_Y47_G42S_YF] 0.762
GPIFRYDLGGA [CYP11B1_Y81] 1.18
VKKKLYEEIDQ [CYP17A1_Y329] 0.905
KLQKKYGPISS [CYP17A1_Y60_Y64S] 0.46
KLQKKYGPIFS [CYP17A1_Y60_YF] 0.834
GCAGKYIAMVM [CYP19A1_Y441] 1.16
RMSQRYGDVLQ [CYP1A2_Y72] 0.896
NLMPAYYKCIQ [CYP21A2_Y190] 0.967
RDMMDYMLQGV [CYP21A2_Y259] 0.959
RDMMDYMPQGV [CYP21A2_Y259_L261P] 0.895
TVLGEYALPKG [CYP24A1_Y407] 0.922
ALTRSYIREKV [CYP2C8_Y243] 0.404
VILARYGPAWR [CYP2D6_Y124_F120I] 0.366

The binders below were run against SHP2 C-SH2 domain wild-type in the same assay as above. Details: peptide library: pTyr-Var.

Enrichment score, inactive:
FTRNYYVWAVL [CYBA_Y88_R90W] 2.25
FTRNFYVWAVL [CYBA_Y88_R90W_YF] 0.708
MEVGQYIFVKC [CYBB_Y324] 1.73
MEVGQYFFVKC [CYBB_Y324_I325F] 1.14
GQAPGYSYTAA [CYCS_Y47] 0.646
SQAPGYSFTAA [CYCS_Y47_G42S_YF] 0.76
GPIFRYDLGGA [CYP11B1_Y81] 0.981
VKKKLYEEIDQ [CYP17A1_Y329] 0.851
KLQKKYGPISS [CYP17A1_Y60_Y64S] 0.443
KLQKKYGPIFS [CYP17A1_Y60_YF] 0.787
GCAGKYIAMVM [CYP19A1_Y441] 1.61
RMSQRYGDVLQ [CYP1A2_Y72] 0.799
NLMPAYYKCIQ [CYP21A2_Y190] 1
RDMMDYMLQGV [CYP21A2_Y259] 0.861
RDMMDYMPQGV [CYP21A2_Y259_L261P] 0.717
TVLGEYALPKG [CYP24A1_Y407] 0.972
ALTRSYIREKV [CYP2C8_Y243] 0.345
VILARYGPAWR [CYP2D6_Y124_F120I] 0.339

The binders below were run against SHP2 N-SH2 domain L43F in the same assay as above. Details: peptide library: pTyr-Var.

Enrichment score, inactive:
FTRNYYVWAVL [CYBA_Y88_R90W] 2.17
FTRNFYVWAVL [CYBA_Y88_R90W_YF] 0.682
MEVGQYIFVKC [CYBB_Y324] 1.29
MEVGQYFFVKC [CYBB_Y324_I325F] 0.847
GQAPGYSYTAA [CYCS_Y47] 0.615
SQAPGYSFTAA [CYCS_Y47_G42S_YF] 0.671
GPIFRYDLGGA [CYP11B1_Y81] 1.02
VKKKLYEEIDQ [CYP17A1_Y329] 0.822
KLQKKYGPISS [CYP17A1_Y60_Y64S] 0.433
KLQKKYGPIFS [CYP17A1_Y60_YF] 0.82
GCAGKYIAMVM [CYP19A1_Y441] 1.2
RMSQRYGDVLQ [CYP1A2_Y72] 1.17
NLMPAYYKCIQ [CYP21A2_Y190] 1.11
RDMMDYMLQGV [CYP21A2_Y259] 0.853
RDMMDYMPQGV [CYP21A2_Y259_L261P] 0.853
TVLGEYALPKG [CYP24A1_Y407] 0.761
ALTRSYIREKV [CYP2C8_Y243] 0.328
VILARYGPAWR [CYP2D6_Y124_F120I] 0.264

Each binder was assayed against SHP2 N-SH2 domain T42A in the same assay as above. Details: peptide library: pTyr-Var.

Enrichment score, inactive:
FTRNYYVWAVL [CYBA_Y88_R90W] 1.92
FTRNFYVWAVL [CYBA_Y88_R90W_YF] 0.589
MEVGQYIFVKC [CYBB_Y324] 1.15
MEVGQYFFVKC [CYBB_Y324_I325F] 0.741
GQAPGYSYTAA [CYCS_Y47] 0.595
SQAPGYSFTAA [CYCS_Y47_G42S_YF] 0.905
GPIFRYDLGGA [CYP11B1_Y81] 0.856
VKKKLYEEIDQ [CYP17A1_Y329] 0.755
KLQKKYGPISS [CYP17A1_Y60_Y64S] 0.435
KLQKKYGPIFS [CYP17A1_Y60_YF] 0.607
GCAGKYIAMVM [CYP19A1_Y441] 1.07
RMSQRYGDVLQ [CYP1A2_Y72] 0.567
NLMPAYYKCIQ [CYP21A2_Y190] 0.752
RDMMDYMLQGV [CYP21A2_Y259] 0.933
RDMMDYMPQGV [CYP21A2_Y259_L261P] 0.971
TVLGEYALPKG [CYP24A1_Y407] 0.651
ALTRSYIREKV [CYP2C8_Y243] 0.34
VILARYGPAWR [CYP2D6_Y124_F120I] 0.316

The binders below were run against SHP2 N-SH2 domain T52S in the same assay as above. Details: peptide library: pTyr-Var.

Enrichment score, inactive:
FTRNYYVWAVL [CYBA_Y88_R90W] 1.57
FTRNFYVWAVL [CYBA_Y88_R90W_YF] 0.689
MEVGQYIFVKC [CYBB_Y324] 1.11
MEVGQYFFVKC [CYBB_Y324_I325F] 0.779
GQAPGYSYTAA [CYCS_Y47] 0.555
SQAPGYSFTAA [CYCS_Y47_G42S_YF] 0.718
GPIFRYDLGGA [CYP11B1_Y81] 1.08
VKKKLYEEIDQ [CYP17A1_Y329] 0.833
KLQKKYGPISS [CYP17A1_Y60_Y64S] 0.431
KLQKKYGPIFS [CYP17A1_Y60_YF] 0.763
GCAGKYIAMVM [CYP19A1_Y441] 1.26
RMSQRYGDVLQ [CYP1A2_Y72] 0.98
NLMPAYYKCIQ [CYP21A2_Y190] 0.914
RDMMDYMLQGV [CYP21A2_Y259] 0.831
RDMMDYMPQGV [CYP21A2_Y259_L261P] 0.641
TVLGEYALPKG [CYP24A1_Y407] 0.681
ALTRSYIREKV [CYP2C8_Y243] 0.291
VILARYGPAWR [CYP2D6_Y124_F120I] 0.363

The binders below were run against SHP2 N-SH2 domain wild-type in the same assay as above. Details: peptide library: pTyr-Var.

Enrichment score, inactive:
FTRNYYVWAVL [CYBA_Y88_R90W] 1.68
FTRNFYVWAVL [CYBA_Y88_R90W_YF] 0.678
MEVGQYIFVKC [CYBB_Y324] 1.32
MEVGQYFFVKC [CYBB_Y324_I325F] 1.07
GQAPGYSYTAA [CYCS_Y47] 0.681
SQAPGYSFTAA [CYCS_Y47_G42S_YF] 0.824
GPIFRYDLGGA [CYP11B1_Y81] 1.15
VKKKLYEEIDQ [CYP17A1_Y329] 0.631
KLQKKYGPISS [CYP17A1_Y60_Y64S] 0.588
KLQKKYGPIFS [CYP17A1_Y60_YF] 0.787
GCAGKYIAMVM [CYP19A1_Y441] 1.4
RMSQRYGDVLQ [CYP1A2_Y72] 0.808
NLMPAYYKCIQ [CYP21A2_Y190] 1.27
RDMMDYMLQGV [CYP21A2_Y259] 0.837
RDMMDYMPQGV [CYP21A2_Y259_L261P] 0.972
TVLGEYALPKG [CYP24A1_Y407] 0.85
ALTRSYIREKV [CYP2C8_Y243] 0.341
VILARYGPAWR [CYP2D6_Y124_F120I] 0.363
